This is one part of the list.
Each sequence was assayed on PfAP2-HC AP2 domain (GST-tagged) (assay: gcPBM binding intensity (ln(normalized median fluorescence intensity)); higher = stronger DNA binding).
How it was run: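 Binding intensity is defined as the maximum Masliner-normalised natural-log median intensity across replicate spots for either probe orientation. It was measured on an Agilent 4 × 180k array of primer-extended double-stranded 36-bp intergenic genomic probes and negative controls, to which GST-tagged P. falciparum DNA-binding domains made in E. coli were applied for 1 h in 1× PBS with 1% milk, 0.2 mg/ml BSA, 0.5% salmon testes DNA and 0.03% Triton X-100. Detection was by Alexa488 anti-GST antibody and scanning at 488 nm.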

Sequence	gcPBM binding intensity (ln)
TTCTGTATACGGTGTGCACACAATTAAAAAAAAAAA [CACACA_site1416]	10.1
AACATATAAAAATATGCACACACAGGAATACAAACA [CACACA_site8127]	11.2
TTAAATAACCTCAAGGATAAGAAAAAATTAAAAATT [CACACA_negctrl_site1336]	9.36
GTAAATATATATATATATATATATATATATATATAT [GTGCAC_negctrl_site239]	9.73
GGATTTTACCATAGCACACATATATGAATATTTTTC [CACACA_site1814]	9.78
TTTATATACTATCAACGTACAAAAGTAATAAAAATA [XGTACX_site4343]	9.61
CATTTTATTTTCTTTGTGCACAAAAATATTTTTTCT	9.71
TTGTAACAAAAGTACACACACATTTCTATAAATTTT [CACACA_site2772]	10
AAAGTTATGATATATACACACATATAAATATTAAAT [CACACA_site6361]	9.98
TGTTCTAATTTTAATTGTACATATATACATATATAT [XGTACX_site7290]	9.92
TTTAAAAAAAAAAAAAATTTTTTTTTTTTTTTTTTA [CACACA_negctrl_site1415]	9.07
CATATATATATATGAACACACAAAAAGAATATTTCC [CACACA_site1493]	10.1
TCTATACCTATTCTTACACACATATGTATTTATATA [CACACA_site4475]	10.2
AATTATATTTAGTATATGCACACTTTATGTTTGTTA [CACACA_site2025]	9.8
GTAGAAAGAAAAATTAGTACTTAAATATTATAAAAA [XGTACX_site8458]	9.52
TTCTATGCATTTATAGTGCATGTAAAATATAAGATA [GTGCAC_site9466]	9.26
TTTTAAAAAATATAATAATATAAATATTTTATACGT [TGCATGCA_negctrl_site252]	9.33
GACTTTTTCATTTTTAGTACACATATATATTTCCCT [XGTACX_site3511]	10.1
AAAAAAAAAAAACATACACACACACTAATATTTATA [CACACA_site8038]	10.9

Sequence	gcPBM binding intensity (ln)
TTAAAAAATCACAACACACACACACCCAAAAAAAAA [CACACA_site1445]	10.6
ATATATTTTTAATATGCACACAAGAATACATTCACA [CACACA_site914]	9.87
TTTATCCAATAATCTGGTACACAATAATCATTCATG [XGTACX_site6192]	9.53
TTTTTTTACTTAATAGTTCAACATATATCTCAATGT [CACACA_negctrl_site620]	9.66
ATTCATATATACTTCACACACATTTTATCATTCAAA [CACACA_site2468]	10.2
TTTCTATTTATTTCAAGTACTAAAAATATATATAAC [XGTACX_site8203]	9.44
TTTTTGTGCATTGATTGTACTTTCTAGGATTATTAA [XGTACX_site7070]	9.59
TTTTTTCATTATATATAGTATGCAAGTCAAATTAAT [GTGCAC_negctrl_site207]	9.43
TATATATATATATAAAGTACATATAATATATATTTG [XGTACX_site5412]	9.59
TTTTTTTTTTTGATGGTGCAATATATTAAATAGAAA	9.21
AAAAAAAAAAAAAACATACACACATTGAACTTTTAT [CACACA_site3251]	10
ACAAAATTTACAAAATGTACAAAATTTACAAAATAT [XGTACX_site3542]	9.8
CTATAAAAATATAATTGTACAAATTTTTATATCTTA [XGTACX_site7722]	9.46
GAAATTATGTAAAAAAGTACTAACATACATATATAT [XGTACX_site1794]	9.77
GAAAACGTCTTTAATAGTACACAGTTAAAAAATACA [XGTACX_site8976]	9.36
TCATATAACACTTGATGTACAAGAATCCAAGTTGCA [XGTACX_site8758]	9.42
ATATGTATAATATATATATATATATATATATATATA [CACACA_negctrl_site623]	9.6
TTAAAATAGATAAATAGTACTCTTTCCATTATGTAA [XGTACX_site6299]	9.45
TATATAATAAGATATGCATGCACATGTAAAATGAAT [TGCATGCA_site499]	10.1

Sequence	gcPBM binding intensity (ln)
ATAATGTTTTATAATACACACATTAGATATATAAAT [CACACA_site7834]	9.74
GTGATAAATATTATATGTACATATAATATTTATGTC [XGTACX_site8023]	9.71
TTGAACCTGATAAATACACACAATATATATTTTTTT [CACACA_site2173]	9.8
TCAAAAACGAGACATGCATGCAATTCATTTTGATTC [TGCATGCA_site212]	9.55
CCATTCTTACTTTATTGTACTTGAAAATTTTTTTTA [XGTACX_site6160]	9.97
TAAATACTTTTATGTACACACATATAGATATATATT [CACACA_site5416]	9.84
TTATGAAAAATAAAATTAGAAAAAAAGGAAAATGAA [XGTACX_negctrl_site232]	9.64
TTTCTTAAATATATTGAGGAATAAAAAGAAGAAAAG [GTGCAC_negctrl_site281]	9.51
AGGTTACATAGATTTTGTACATATATATTATTTTTT [XGTACX_site3040]	9.71
AAAAAATTATAAAAGTGTACATATATATATATATAT [XGTACX_site154]	9.57
ATATATATATGTTACTGTACTAATTTATATGTTAAT [XGTACX_site3341]	9.76
AATACAAATATATACACACATACATACATACATATA [CACACA_site3147]	10.4
TAGATATATAATTTGCGTACACAAATAATATATTTT [XGTACX_site6397]	9.53
TAGTTTTCTTAAAGATGTACATTTTAAAAATAATCT [XGTACX_site255]	9.36
CACAAAAATAGACACACACACATATAGATTTATTAT [CACACA_site7676]	10.6
TTATGGTTTAAATAAAGTACAAATAAATAAATATAT [XGTACX_site5777]	9.6
ATACACATATGTTAATGTACACATATATAATATTTA [XGTACX_site163]	9.67
ATATATTAAAAACGATGTACCCTGAACTAAAAAAAA [XGTACX_site4986]	9.73

Reference: the supplement of paper PMC11417369
